Measured values: PubChem BioAssay AID504339 (National Center for Advancing Translational Sciences (NCATS), 2011)
The whole screen tested about 390,000 compounds, of which about 17,000 (4.4%) were called active. Inconclusive results, whose numbers are uncertain, are shown with a selection of clear calls. Calls come from the whole dose curve; as a rule, active = well fitted inhibition curve with a large enough effect; inconclusive = small, poorly fitted or top-dose-only effect; inactive = no such curve, though single readings can be large or run the other way. A potency beside an inconclusive call is a rough fit, not a confirmed value.
% is set by controls: 0 for no effect and ±100 for the full control effect; potency is the fitted concentration of half-maximal effect; tags give direction and shape of the fitted curve.
Note: nearly all actives have a fitted effect of over 50% in size.

What follows are compounds tested against Lysine-specific demethylase 4A (Homo sapiens) (UniProt O75164) (assay: qHTS Assay for Inhibitors of JMJD2A-Tudor Domain). Details: AlphaScreen JMJD2A-Tudor / H3K4me3 peptide binding; activity change, negative = inhibition: at 114 µM (top of the series).
UniProt O75164, sequence (O75164 whole entry, looked up, the tested form may be a part): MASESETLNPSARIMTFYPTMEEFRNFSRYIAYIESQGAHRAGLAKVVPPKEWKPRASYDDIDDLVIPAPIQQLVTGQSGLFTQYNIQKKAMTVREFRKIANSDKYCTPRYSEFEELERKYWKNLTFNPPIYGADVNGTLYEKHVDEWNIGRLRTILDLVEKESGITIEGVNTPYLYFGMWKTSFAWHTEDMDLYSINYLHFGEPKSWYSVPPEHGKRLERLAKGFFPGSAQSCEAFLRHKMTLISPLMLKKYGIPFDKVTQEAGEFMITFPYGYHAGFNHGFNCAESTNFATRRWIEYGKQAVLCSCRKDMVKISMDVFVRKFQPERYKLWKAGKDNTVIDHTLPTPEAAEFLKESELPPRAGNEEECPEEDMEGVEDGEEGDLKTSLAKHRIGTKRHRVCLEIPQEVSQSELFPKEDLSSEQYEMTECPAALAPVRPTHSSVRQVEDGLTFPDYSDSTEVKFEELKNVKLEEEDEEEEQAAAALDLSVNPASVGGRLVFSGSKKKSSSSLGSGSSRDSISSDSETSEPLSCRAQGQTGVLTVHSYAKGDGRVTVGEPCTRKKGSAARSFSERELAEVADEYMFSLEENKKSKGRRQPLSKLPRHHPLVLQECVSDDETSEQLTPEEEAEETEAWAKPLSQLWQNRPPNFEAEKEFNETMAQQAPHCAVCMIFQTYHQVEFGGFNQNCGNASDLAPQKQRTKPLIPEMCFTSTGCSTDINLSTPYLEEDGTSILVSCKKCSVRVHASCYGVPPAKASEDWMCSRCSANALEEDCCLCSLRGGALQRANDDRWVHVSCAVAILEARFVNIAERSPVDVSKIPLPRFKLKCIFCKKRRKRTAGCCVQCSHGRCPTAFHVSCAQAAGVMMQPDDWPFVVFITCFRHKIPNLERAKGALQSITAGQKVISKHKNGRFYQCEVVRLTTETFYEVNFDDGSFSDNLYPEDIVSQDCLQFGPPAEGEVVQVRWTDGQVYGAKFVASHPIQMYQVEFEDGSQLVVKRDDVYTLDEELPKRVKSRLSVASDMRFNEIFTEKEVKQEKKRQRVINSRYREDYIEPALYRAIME
For `COC(=O)c1[nH]c2ccccc2c1NC(=O)CN1CCN(C/C=C/c2ccccc2)CC1`, the Potency was inconclusive: 56.2 µM [inhibitor, partial curve]. With `Cc1cccnc1NC(=O)CCCNC(=O)c1ccc(Cl)cc1` the Potency was “inactive”. With `COc1ccc(OC)c(NC(=O)CSCc2cnn(-c3ccccc3)c2-n2cccc2)c1` the Potency was inconclusive: 31.6 µM [inhibitor, full curve, poor fit]. With `COc1ccc(Cc2n[nH]c(=S)o2)cc1` the Potency was active: 31.6 µM. In the case of `Cc1csc(N/N=C/c2ccccn2)n1`, the Potency is reported as inconclusive: 63.1 µM [inhibitor, partial curve, poor fit]. With `CC1(C)Cc2c(c(N3CCOCC3)nc3sc4c(NCCN)ncnc4c23)CO1` the Potency was inconclusive: 31.6 µM [inhibitor, partial curve, poor fit]. For `O=C(CCS(=O)(=O)c1ccc(F)cc1)Nc1nnc(-c2cccs2)o1`, the Potency was inconclusive: 70.8 µM [inhibitor, partial curve, poor fit]. With `CCC(C)(C)NC(=O)C(c1ccccc1Cl)N(C(=O)CCC(=O)Nc1cc(C)on1)C(C)(C)C` (configuration not stated) the Potency was active: 56.2 µM. `Cc1ccc(-c2nc3c(c(SCC(=O)N4CCOCC4)n2)Cc2c(CO)cnc(C)c2O3)cc1` was tested, and the Potency was inconclusive: 44.7 µM [inhibitor, partial curve]. For `CCc1ccc(NC(=O)CCc2c(C)nn(-c3ccc(N4CCCCC4)nn3)c2C)cc1`, the Potency was inconclusive: 22.4 µM [inhibitor, full curve, poor fit]. `O=C(CN1CCCC1)N/N=C/c1ccc(-c2cccc(Cl)c2)o1` was tested, and the Potency was inconclusive: 56.2 µM [inhibitor, partial curve]. With `Cc1c(Cl)cccc1NC(=O)Cn1c(=O)nc(-c2ccccc2)c2ccccc21` the Potency was “inactive”. With `Clc1ccc(-c2csc(NNC3=NCCCCC3)n2)cc1` the Potency was inconclusive: 39.8 µM [inhibitor, partial curve]. `O=C(CNC(=O)C(c1ccccc1)c1ccccc1)N/N=C/c1ccc(O)cc1O` was tested, and the Potency was “inactive”. For `CCOC(=O)N1CCc2c(sc(NCc3ccc(OC)c(OC)c3OC)c2C(=O)Nc2ccc(OC)cc2OC)C1`, the Potency was inconclusive: 20 µM [inhibitor, full curve]. With `O=C1C=C(c2cccs2)CC(c2cccs2)C1n1cnc([N+](=O)[O-])c1` (configuration not stated) the Potency was inconclusive: 39.8 µM [inhibitor, single point]. For `CC1(C)C(=O)Nc2ccccc2N1C(=O)COC(=O)CSc1ccc(Cl)cc1`, the Potency was inconclusive: 39.8 µM [inhibitor, full curve, poor fit]. `O=C(CSc1cccc[n+]1[O-])c1ccc(-c2ccccc2)cc1` was tested, and the Potency was inconclusive: 79.4 µM [inhibitor, partial curve]. `Cc1ccc(-c2ncns2)cc1` was tested, and the Potency was inconclusive: 89.1 µM [inhibitor, single point]. With `Cc1ccc2c(c1)S/C(=C/c1ccc[n+](CCO)c1)N2C` the Potency was inconclusive: 25.1 µM [inhibitor, partial curve]. In the case of `O=C(Nc1ccc(OC(F)F)cc1)c1ncc(Cl)c(Cl)c1Cl`, the activity change, negative = inhibition is reported as inconclusive: -85.1% [inhibitor]. `Cc1cc2ccccc2n1CCNC(=O)C1CC1` was tested, and the Potency was inconclusive: 89.1 µM [inhibitor, partial curve, poor fit]. `Oc1ccc(C[C@H]2CNCCN2CCc2cccc3ccccc23)cc1` was tested, and the Potency was inconclusive: 89.1 µM [inhibitor, partial curve]. For `C#CCOCCOCCOCCNc1nc(N2CCN(C(=O)[C@H](Cc3cc4ccccc4[nH]3)n3cc([C@@H](N)CC(C)C)nn3)CC2)nc(N2CCN(C(=O)[C@H](Cc3cc4ccccc4[nH]3)n3cc([C@@H](N)CC(C)C)nn3)CC2)n1`, the Potency was active: 44.7 µM. In the case of `COc1ccc(C(NC(=O)/C=C/c2ccco2)c2ccc(OC)c(OC)c2)cc1` (configuration not stated), the Potency is reported as “inactive”. For `CSc1nnc(N(CCC#N)CCC#N)s1`, the Potency was “inactive”. For `Cc1ccc(S(=O)(=O)N(C(=O)c2ccncc2)c2ccc(OC(=O)c3ccncc3)c3ccccc23)c(C)c1`, the Potency was inconclusive: 3.55 µM [inhibitor, partial curve]. In the case of `CS(=O)(=O)C1=NN2C(=N)/C(=C\c3ccc(OCCOc4ccccc4)cc3)C(=O)N=C2S1`, the Potency is reported as active: 56.2 µM. In the case of `CSc1nsc(/C=C/Nc2ccc(F)cc2)c1C#N`, the Potency is reported as inconclusive: 56.2 µM [inhibitor, partial curve]. For `CN(C)CC/C=C1\c2ccccc2CSc2ccccc21`, the Potency was inconclusive: 89.1 µM [inhibitor, partial curve]. With `CCC(=O)OCC(=O)Nc1ccc(OC)cc1[N+](=O)[O-]` the Potency was “inactive”. With `O=C(NN=Cc1c(O)ccc2ccccc12)C1CC1` the Potency was “inactive”. With `C/C(=C\[C@@H](NP(=O)(c1ccccc1)c1ccccc1)c1ccccc1)CO[Si](c1ccccc1)(c1ccccc1)C(C)(C)C` the Potency was inconclusive: 12.6 µM [inhibitor, full curve]. In the case of `COc1ccc(S(=O)(=O)NCCCCC(=O)O)cc1C(=O)O`, the Potency is reported as “inactive”. With `CC1CN(c2oc(Cc3cccc4ccccc34)nc2C#N)CC(C)O1` (configuration not stated) the Potency was inconclusive: 50.1 µM [inhibitor, partial curve]. `CCc1nnc(NC(=O)C2CCCN2C(=O)Nc2ccccc2)s1` (configuration not stated) was tested, and the Potency was “inactive”. For `Cc1cc(C)cc(Nc2nc3c([nH]2)c(=O)n(C)c(=O)n3C)c1`, the Potency was inconclusive: 79.4 µM [inhibitor, single point]. In the case of `NC(=O)C1CCN(C(=O)CN2CCc3ccccc32)CC1`, the Potency is reported as inconclusive: 50.1 µM [inhibitor, partial curve]. With `Cc1cccc(N2CCN(C3(c4ccccc4)C(=O)c4ccccc4C3=O)CC2)c1C` the Potency was inconclusive: 25.1 µM [inhibitor, partial curve]. In the case of `COC(=O)C1=C(C)NC(=O)/C1=C\c1cc(C)n(-c2ccc(F)cc2)c1C`, the Potency is reported as inconclusive: 44.7 µM [inhibitor, partial curve]. `C=Cc1ccc(C(=O)N2CCCC(CCC(=O)N3CCN(c4ccccn4)CC3)C2)cc1` (configuration not stated) was tested, and the Potency was active: 56.2 µM. With `Cc1cc(C)n2cc(CSc3nnc(-c4ccccc4)c(-c4ccccc4)n3)nc2n1` the Potency was inconclusive: 56.2 µM [inhibitor, partial curve].
